This passage reports enrichment ratio results from a collection of fitness landscapes (doi:10.1126/science.1257360).

This is one part of the list.

B1: PhoQ; a variant is named by its letters at X, in order, P23837 (parent)
chain: MKKLLRLFFPLSLRVRFLLATAAVVLVLSLAYGMVALIGYSVSFDKTTFRLLRGESNLFYTLAKWENNKLHVELPENIDKQSPTMTLIYDENGQLLWAQRDVPWLMKMIQPDWLKSNGFHEIEADVNDTSLLLSGDHSIQQQLQEVREDDDDAEMTHSVAVNVYPATSRMPKLTIVVVDTIPVELKSSYMVWSWFIYVLSANLLLVIPLLWVAAWWSLRPIEALAKEVRELEEHNRELLNPATTRELTSLVRNLNRLLKSERERYDKYRTTLTDLTHSLKTPLXXLQXXLRSLRSEKMSVSDAEPVMLEQISRISQQIGYYLHRASMRGGTLLSRELHPVAPLLDNLTSALNKVYQRKGVNISLDISPEISFVGEQNDFVEVMGNVLDNACKYCLEFVEISARQTDEHLYIVVEDDGPGIPLSKREVIFDRGQRVDTLRPGQGVGLAVAREITEQYEGKIVAGESMLGGARMEVIFGRQHSAPKDE

The variants in this experiment derive from B1. In words: enrichment ratio after two sorts for PhoP signalling (ratio (wild type AVST 3.29)); higher = more functional. The following applies: with PhoP (E. coli).
Take EIQS: the enrichment ratio is ≤ 0.25. Under YYTQ stands ≤ 0.25; under VLKH, ≤ 0.25; under EGVK, ≤ 0.25. Under MNIR stands ≤ 0.25. Under LIQP stands ≤ 0.25; under KPAT, ≤ 0.25; under VFWV, ≤ 0.25. SFFY: the enrichment ratio was ≤ 0.25. Under CEIP stands ≤ 0.25; under WLDD, ≤ 0.25.

With HTDK, the enrichment ratio was ≤ 0.25. Under PGDS stands ≤ 0.25; under MAKI, ≤ 0.25. Next, PIYM: ≤ 0.25.

As for ATDD, the enrichment ratio is ≤ 0.25.

As for SPRV, the enrichment ratio is ≤ 0.25. Under KDFR stands ≤ 0.25; under MLDR, ≤ 0.25; under IKKR, ≤ 0.25.

As for NGYT, the enrichment ratio was ≤ 0.25. On to TWEC, for which the enrichment ratio is ≤ 0.25. Next, SDYR: ≤ 0.25. Under EFTY stands ≤ 0.25; under PTLL, ≤ 0.25; under HNQC, ≤ 0.25.

With GWPG, the enrichment ratio was ≤ 0.25. Under EDID stands ≤ 0.25; under RYIH, ≤ 0.25; under NMDH, ≤ 0.25. For the variant QVVN, the enrichment ratio was ≤ 0.25. With NSQM, the enrichment ratio was ≤ 0.25.

For NEDG, the enrichment ratio was ≤ 0.25. Under YPYA stands ≤ 0.25. Under TLPK stands ≤ 0.25; under TTHI, 11.5. Under EINV stands ≤ 0.25; under FIRI, ≤ 0.25; under HLNK, ≤ 0.25. In the case of DFTV, the enrichment ratio was ≤ 0.25.

Consider KAMH, for which the enrichment ratio is ≤ 0.25. EYAS: the enrichment ratio was ≤ 0.25. Consider MFND, for which the enrichment ratio was ≤ 0.25. Next, GFLW: ≤ 0.25. Under EFFN stands ≤ 0.25; under TVAM, 6.16. Next, VEGV: ≤ 0.25.

Regarding YDVR, the enrichment ratio is ≤ 0.25. Under RADP stands ≤ 0.25.

For the variant IIIL, the enrichment ratio is ≤ 0.25. As for VPHM, the enrichment ratio is ≤ 0.25. Under IQVF stands ≤ 0.25. Next, TCIT: ≤ 0.25; DALQ: ≤ 0.25. Next, LIIP: ≤ 0.25; HNAK: ≤ 0.25; HSTD: ≤ 0.25. QLQK: the enrichment ratio is ≤ 0.25.

Consider QFPT, for which the enrichment ratio was ≤ 0.25. As to HRKT, the enrichment ratio is ≤ 0.25. Under SCTP stands ≤ 0.25; under RLIR, ≤ 0.25. Next, RKTT: ≤ 0.25.

For the variant GWVV, the enrichment ratio was ≤ 0.25. Under KSTS stands ≤ 0.25; under YIMP, ≤ 0.25; under TDVD, ≤ 0.25. On to KSNP, for which the enrichment ratio is ≤ 0.25. Under HWPK stands ≤ 0.25; under VMAI, ≤ 0.25; under MSDN, ≤ 0.25. Under FGWP stands ≤ 0.25; under VEFG, 1.06. Under FDMC stands ≤ 0.25. Turning to GHYW, the enrichment ratio is ≤ 0.25. For the variant DQYC, the enrichment ratio was ≤ 0.25. Consider RISF, for which the enrichment ratio was ≤ 0.25. Under DMVG stands ≤ 0.25; under HSRR, ≤ 0.25. Under FMKD stands ≤ 0.25; under QEMC, ≤ 0.25; under RSPK, ≤ 0.25. For MHLC, the enrichment ratio was ≤ 0.25. MFKT: the enrichment ratio was ≤ 0.25.

Turning to ICDN, the enrichment ratio was ≤ 0.25.

As for ENKT, the enrichment ratio is ≤ 0.25. FTEP: the enrichment ratio was ≤ 0.25. In the case of TNDF, the enrichment ratio was ≤ 0.25. Next, FKCL: ≤ 0.25; DYPW: ≤ 0.25; MLFE: ≤ 0.25. Next, WSGW: ≤ 0.25. Under PAAK stands ≤ 0.25.

Regarding SSYY, the enrichment ratio turned out to be 0.922.

Regarding NIWI, the enrichment ratio was ≤ 0.25. Next, DRCC: ≤ 0.25.

As for WFYC, the enrichment ratio is ≤ 0.25.

Take HEAE: the enrichment ratio is ≤ 0.25.

On to VTGS, for which the enrichment ratio is ≤ 0.25. Next, HTFC: ≤ 0.25; NMVE: ≤ 0.25. Next, YGIH: ≤ 0.25.

As for RHMM, the enrichment ratio was ≤ 0.25. Under PTQM stands ≤ 0.25. Next, SLFF: ≤ 0.25; MRGP: ≤ 0.25. Under THTI stands 6.67; under DHPP, ≤ 0.25.

Take REMS: the enrichment ratio is ≤ 0.25. Next, VDAD: ≤ 0.25. Under HDDA stands ≤ 0.25; under AKAG, ≤ 0.25; under WMAQ, ≤ 0.25. Next, HHFQ: ≤ 0.25.

For TITK, the enrichment ratio was determined as 4.14. On to DHKA, for which the enrichment ratio was ≤ 0.25.

As for VFVN, the enrichment ratio was ≤ 0.25.

On to TVMW, for which the enrichment ratio is ≤ 0.25.

Consider FMKK, for which the enrichment ratio is ≤ 0.25. Next, NLND: ≤ 0.25; FTEQ: ≤ 0.25.

As for YGCH, the enrichment ratio was ≤ 0.25.

As to ADLA, the enrichment ratio is 0.619. Under MIVS stands ≤ 0.25; under SSMP, ≤ 0.25. Next, PRTK: ≤ 0.25.

On to WWGF, for which the enrichment ratio was ≤ 0.25. Next, IHFS: ≤ 0.25; QTKS: ≤ 0.25.

Turning to FRQR, the enrichment ratio is ≤ 0.25.

PDNT: the enrichment ratio is ≤ 0.25. Regarding ARGG, the enrichment ratio was ≤ 0.25. Under AWVE stands ≤ 0.25; under PWWT, ≤ 0.25; under EEMV, ≤ 0.25. Take LDPN: the enrichment ratio was ≤ 0.25. Next, TCTT: 9.19. Next, IGAG: ≤ 0.25; HHWH: ≤ 0.25; KETY: ≤ 0.25.

Take FYHD: the enrichment ratio is ≤ 0.25. On to MVGE, for which the enrichment ratio was ≤ 0.25.

Regarding TQCE, the enrichment ratio was found to be 87.9.

Take TKFP: the enrichment ratio was ≤ 0.25.

Take SDST: the enrichment ratio was found to be 2.41. Under VCAF stands ≤ 0.25; under DMDF, ≤ 0.25. Under EYYS stands ≤ 0.25; under GHEN, ≤ 0.25; under DMHC, ≤ 0.25. On to YSEN, for which the enrichment ratio is ≤ 0.25.

PSGN: the enrichment ratio is ≤ 0.25.

Take DFWC: the enrichment ratio was ≤ 0.25. Under LSPG stands ≤ 0.25. Next, HYQL: ≤ 0.25. Take EPCH: the enrichment ratio was ≤ 0.25. Under RERY stands ≤ 0.25; under TCDR, ≤ 0.25. Next, YWVW: ≤ 0.25; STCL: 15.7. Under DQPS stands ≤ 0.25. Consider EDCQ, for which the enrichment ratio is ≤ 0.25. Regarding VRPF, the enrichment ratio was ≤ 0.25.

YRGK: the enrichment ratio is ≤ 0.25. Next, SEVL: 8.66. Under PGDG stands ≤ 0.25. Under HTVM stands ≤ 0.25; under ILQV, ≤ 0.25. As to RPDA, the enrichment ratio is ≤ 0.25. PLFA: the enrichment ratio is ≤ 0.25. In the case of TSQN, the enrichment ratio came out at 4.91. Under LCRT stands ≤ 0.25; under FPHM, ≤ 0.25; under YYFQ, ≤ 0.25.

With DTYC, the enrichment ratio was ≤ 0.25. FQPI: the enrichment ratio was ≤ 0.25. Next, GQYD: ≤ 0.25. Under TTLC stands 14.4; under NEKL, ≤ 0.25; under PVCN, ≤ 0.25. Take DEPF: the enrichment ratio is ≤ 0.25. Next, FIMP: ≤ 0.25; NARM: 0.579. Under HGPV stands ≤ 0.25.

With GRSV, the enrichment ratio was ≤ 0.25.

In the case of MVLF, the enrichment ratio was 4.35.

In the case of YDWH, the enrichment ratio is ≤ 0.25. Under AMHM stands ≤ 0.25; under DISN, ≤ 0.25; under VMLG, ≤ 0.25. Turning to AKLE, the enrichment ratio was ≤ 0.25.

With MWFG, the enrichment ratio was ≤ 0.25.

Turning to LCHW, the enrichment ratio was ≤ 0.25. Turning to TEFR, the enrichment ratio was ≤ 0.25. Under DGEG stands ≤ 0.25; under HSVE, ≤ 0.25. DANF: the enrichment ratio was ≤ 0.25.

On to RYGC, for which the enrichment ratio was ≤ 0.25.

Regarding LMRD, the enrichment ratio was ≤ 0.25. On to ANVQ, for which the enrichment ratio is ≤ 0.25. TAWH: the enrichment ratio is ≤ 0.25.

On to NPLS, for which the enrichment ratio is ≤ 0.25. Under LRGD stands ≤ 0.25; under GFFA, ≤ 0.25. Regarding HSIL, the enrichment ratio turned out to be 2.64. Next, FCNI: ≤ 0.25; VFIN: ≤ 0.25; NSFV: ≤ 0.25. Regarding AFWM, the enrichment ratio was ≤ 0.25. Turning to LRRP, the enrichment ratio was ≤ 0.25. For the variant VGKY, the enrichment ratio was ≤ 0.25. Regarding MQEM, the enrichment ratio is ≤ 0.25.

Regarding DIFD, the enrichment ratio was ≤ 0.25. Next, QHYP: ≤ 0.25; RVPF: ≤ 0.25; WERQ: ≤ 0.25. Next, EDGP: ≤ 0.25; NHYP: ≤ 0.25; KVEF: ≤ 0.25. Under IKCW stands ≤ 0.25. On to DSNN, for which the enrichment ratio was ≤ 0.25. Turning to DHGA, the enrichment ratio was ≤ 0.25. As to GFFT, the enrichment ratio is ≤ 0.25. Under WYRF stands ≤ 0.25; under KSSV, ≤ 0.25. Next, KFDH: ≤ 0.25; GTMG: 1.66. Under SWKP stands ≤ 0.25; under HTWR, ≤ 0.25; under EYGS, ≤ 0.25. YKSA: the enrichment ratio is ≤ 0.25. With FPEM, the enrichment ratio is ≤ 0.25. Under SWNG stands ≤ 0.25. Under WDTQ stands ≤ 0.25. Regarding ICIE, the enrichment ratio was ≤ 0.25. Under THIR stands ≤ 0.25.

In the case of RNAG, the enrichment ratio was ≤ 0.25. WLHS: the enrichment ratio is ≤ 0.25. Regarding NRRY, the enrichment ratio was ≤ 0.25. Under KYID stands ≤ 0.25; under GSKA, ≤ 0.25. Next, DEDP: ≤ 0.25; VSTC: 0.337; MFGF: ≤ 0.25. Under SVGF stands 9.01. Take RTKI: the enrichment ratio is ≤ 0.25. As to QMAM, the enrichment ratio was determined as 0.936. Under AHTH stands ≤ 0.25; under NDDQ, ≤ 0.25. Under GICK stands 9.7; under FLLR, ≤ 0.25. Under YDDV stands ≤ 0.25; under AYER, ≤ 0.25; under FSFS, ≤ 0.25. Regarding AHTN, the enrichment ratio is ≤ 0.25. MDPE: the enrichment ratio is ≤ 0.25. Under IAYM stands ≤ 0.25. As for QGHL, the enrichment ratio came to 18.3. Next, GMPN: ≤ 0.25; DGDA: ≤ 0.25; EPRM: ≤ 0.25. Under GDQC stands ≤ 0.25; under GIHY, ≤ 0.25. Under TGNH stands 11; under WTAD, ≤ 0.25; under SHDV, ≤ 0.25.

For VLAM, the enrichment ratio is ≤ 0.25. Under QHCL stands ≤ 0.25. Under LETL stands ≤ 0.25; under ARYI, ≤ 0.25. Next, LHVW: ≤ 0.25. On to AFDD, for which the enrichment ratio is ≤ 0.25. Under MPVR stands 0.407. Regarding DLTQ, the enrichment ratio was ≤ 0.25.

Regarding GKLG, the enrichment ratio is ≤ 0.25. On to VLHS, for which the enrichment ratio is ≤ 0.25. In the case of DLIE, the enrichment ratio is ≤ 0.25. Under RHTP stands ≤ 0.25; under KYPQ, ≤ 0.25; under AFWH, ≤ 0.25. Under VWYT stands ≤ 0.25; under QHIP, ≤ 0.25.

As for EGTY, the enrichment ratio is ≤ 0.25. Under NDEA stands ≤ 0.25; under LLAT, ≤ 0.25; under MPCN, ≤ 0.25. Next, SDGR: ≤ 0.25. Turning to QLFC, the enrichment ratio is ≤ 0.25. Under LKWY stands ≤ 0.25.

For KFGD, the enrichment ratio is ≤ 0.25. Under GYFK stands ≤ 0.25; under NIYA, ≤ 0.25; under LPFM, 0.322. Consider KGSM, for which the enrichment ratio was ≤ 0.25. In the case of QSYS, the enrichment ratio was 7.02. Next, NREC: ≤ 0.25; APHM: ≤ 0.25; HAQR: ≤ 0.25. Next, WYGN: ≤ 0.25; SDWD: ≤ 0.25; SIFW: ≤ 0.25. Under MIRF stands ≤ 0.25. With MSQG, the enrichment ratio is ≤ 0.25.

Turning to EPIY, the enrichment ratio is ≤ 0.25. Under ESWR stands ≤ 0.25. Under WVFK stands ≤ 0.25.
